Test results: patent US11547761B1, “Antibody adjuvant conjugates” (The Board of Trustees of the Leland Stanford Junior …, priority 2016, dated 2023)

Assays:
[1] = test system: human APCs (myeloid cells); assay: APC-tumor co-culture / myeloid cell stimulation, surface markers by flow cytometry; assay type: cell-based; conditions: 18 hours of stimulation; compared with the corresponding unconjugated antibody unless the value names another comparator
Text: Human antigen presenting cells (APCs) were negatively selected from human peripheral blood mononuclear cells obtained from healthy blood donors (Stanford Blood Center) by density gradient centrifugation using a RosetteSep Human Monocyte Enrichment Cocktail (Stem Cell Technologies) containing monoclonal antibodies against CD2, CD3, CD8, CD19, CD56, CD66b and CD235a. Immature APCs were subsequently purified to >97% purity via negative selection using an EasySep Human Monocyte Enrichment Kit without CD16 depletion containing monoclonal antibodies against CD2, CD3, CD19, CD20, CD56, CD66b, CD123 and CD235a.
Tumor cells were resuspended in PBS with 0.1% fetal bovine serum (FBS) at 1 to 10×10^6 cells/mL. Cells were subsequently incubated with 2 μM CFSE to yield a final concentration of 1 μM. The reaction was ended after 2 minutes via the addition of 10 mL complete medium with 10% FBS and washed once with complete medium. Cells were either fixed in 2% paraformaldehyde and washed three times with PBS or left unfixed prior to freezing the cells in 10% DMSO, 20% FBS and 70% medium.
2×10^5 APCs were incubated with or without 6.5×10^5 autologous or allogeneic CFSE-labeled tumor cells in 96-well plates (Corning) containing IMDM medium (Gibco) supplemented with 10% fetal bovine serum, 100 U/mL penicillin, 100 μg/mL streptomycin, 2 mM L-glutamine, sodium pyruvate, non-essential amino acids, 50 μM 2-ME and, where indicated, various concentrations of anti-tumor antibody and the indicated adjuvants. Cells and cell-free supernatants were analyzed after 18 hours via flow cytometry.
Human antigen presenting cells (APCs) were negatively selected from human peripheral blood mononuclear cells obtained from healthy blood donors (Stanford Blood Center) by density gradient centrifugation using a RosetteSep Human Monocyte Enrichment Cocktail (Stem Cell Technologies) containing monoclonal antibodies against […]. Immature APCs were subsequently purified to >97% purity via negative selection using an EasySep Human Monocyte Enrichment Kit without CD16 depletion containing monoclonal antibodies against CD14, CD16, CD40, CD86, CD123, and HLA-DR.
2×10^5 APCs were incubated with or without 6.5×10^5 autologous or allogeneic CFSE-labeled tumor cells in 96-well plates (Corning) containing IMDM medium (Gibco) supplemented with 10% fetal bovine serum, 100 U/mL penicillin, 100 μg/mL streptomycin, 2 mM L-glutamine, sodium pyruvate, non-essential amino acids, 50 μM 2-ME and, where indicated, various concentrations of antibody. Cells and cell-free supernatants were analyzed after 18 hours via flow cytometry.
2×10^5 APCs were incubated with or without 6.5×10^5 allogeneic CFSE-labeled tumor cells in 96-well plates (Corning) containing IMDM medium (Gibco) supplemented with 10% fetal bovine serum, 100 U/mL penicillin, 100 μg/mL streptomycin, 2 mM L-glutamine, sodium pyruvate, non-essential amino acids and, where indicated, various concentrations of unconjugated CD20 antibody, and immunoconjugates of the invention were prepared according to the examples above. Cells and cell-free supernatants were analyzed after 18 hours via flow cytometry or ELISA.

[2] = test system: human APCs (myeloid cells); assay: Cytokine secretion from human APCs / myeloid cells (cell free supernatants); assay type: cell-based; conditions: 36 hours of stimulation; compared to equimolar unconjugated antibody
Protocol: After 18 hours, cell free supernatants were analyzed for cytokine secretion via cytokine bead arrays; n=3. P-values≤0.05 depicted by *, P-values≤0.01 depicted by **, P-values≤0.001 depicted by ***, P-values≤0.0001 depicted by ****.
2×10^5 APCs were incubated with or without 6.5×10^5 autologous or allogeneic CFSE-labeled tumor cells in 96-well plates (Corning) containing IMDM medium (Gibco) supplemented with 10% fetal bovine serum, 100 U/mL penicillin, 100 μg/mL streptomycin, 2 mM L-glutamine, sodium pyruvate, non-essential amino acids, 50 μM 2-ME and, where indicated, various concentrations of anti-tumor antibody and the indicated adjuvants. […]
While the expression of T cell stimulatory molecules such as CD40, CD86 and HLA-DR is necessary for effective T cell activation, APCs also influence the nature of the ensuing immune response through the secretion of cytokines. Therefore, the capacity of immunoconjugates to elicit cytokine secretion in human APCs following stimulation was investigated as described above.
The capacity of these immunoconjugates to elicit cytokine secretion in human APCs following stimulation was investigated as described in Example 3 above. […]

B1: Elotuzumab Boltbody (conjugate, chains of the INN, looked up)
heavy: EVQLVESGGGLVQPGGSLRLSCAASGFDFSRYWMSWVRQAPGKGLEWIGEINPDSSTINYAPSLKDKFIISRDNAKNSLYLQMNSLRAEDTAVYYCARPDGNYWYFDVWGQGTLVTVSS[human IgG1 constant region cut from this listing]
light: DIQMTQSPSSLSASVGDRVTITCKASQDVGIAVAWYQQKPGKVPKLLIYWASTRHTGVPDRFSGSGSGTDFTLTISSLQPEDVATYYCQQYSSYPYTFGQGTKVEIKRTVAAPSVFIFPPSDEQLKSGTASVVCLLNNFYPREAKVQWKVDNALQSGNSQESVTEQDSKDSTYSLSSTLTLSKADYEKHKVYACEVTHQGLSSPVTKSFNRGEC
modifications: adjuvant conjugate
superior: CD14 downregulation on myeloid cells [1] | CD16 downregulation on myeloid cells [1] | CD40 upregulation on myeloid cells [1] | CD86 upregulation on myeloid cells [1] | CD123 upregulation on myeloid cells [1] | HLA-DR upregulation (expression) on myeloid cells [1] | IL-1β secretion from myeloid cells [2] | TNFα secretion from myeloid cells [2]
